For 29 cell lines, AUC and IC50 results are on record in the supplement of paper PMC4967469.

By IC50 is meant the dose at which the fit gives 50% viability; a fit beyond the top or the lowest dose is shown as a bound at that dose. AUC, from the same fit, is the share of area under the viability curve across the 256-fold dose range: 1 means no effect, lower means more sensitive.

Compound in this assay: NC1(c2ccc(-c3nc4ccn5c(=O)[nH]nc5c4cc3-c3ccccc3)cc2)CCC1 [MK-2206]
The assay can be described thus: Viability of human cancer cell lines after 72 h of drug (GDSC screen). The procedure:
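Human cancer cell lines in 384-well plates, medium with 10% serum, drug for 72 h over a 256-fold dose range (nine 2-fold or five 4-fold steps up to the top dose). Adherent lines were fixed and stained with the nucleic acid dye Syto60, suspension lines read with resazurin; signal relative to control wells, capped at 0 and 100%. One two-parameter sigmoid per drug and line, fitted in a mixed model over all curves with the slope shared within a line.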

The IC50 is the concentration that gives 50% inhibition. For the cell line “TUR (B-cell lymphoma, suspension, top dose 4 µM)”, the AUC was found to be 0.512 and the IC50 was determined as 0.269 µM.

On to TYK-nu (ovary, adherent, top dose 4 µM), for which the AUC was 0.826 and the half-inhibitory concentration (IC50) turned out to be 2.65 µM.

Regarding “U-87-MG (glioma, adherent, top dose 4 µM)”, the AUC came to 0.976 and the IC50 was above 4 µM.

In the case of “U-118-MG (glioma, adherent, top dose 4 µM)”, the AUC worked out at 0.965 and the concentration for half-maximal inhibition (IC50) was above 4 µM.

Turning to “U-266 (myeloma, semi-adherent, top dose 4 µM)”, the AUC is 0.961 and the IC50 was above 4 µM.

“U-698-M (B-cell leukaemia, suspension, top dose 4 µM)”: the AUC turned out to be 0.884 and the half-inhibitory concentration (IC50) is above 4 µM.

On to “UACC-62 (melanoma, adherent, top dose 4 µM)”, for which the AUC is 0.957 and the IC50 is above 4 µM.

“UACC-257 (melanoma, adherent, top dose 4 µM)”: the AUC came to 0.92 and the IC50 was above 4 µM.

“UWB1.289 (ovary, adherent, top dose 4 µM)”: the AUC came out at 0.852 and the IC50 is above 4 µM.

For “VA-ES-BJ (soft tissue, adherent, top dose 4 µM)”, the AUC was determined as 0.658 and the IC50 is 0.706 µM.

Turning to “VAL (B-cell lymphoma, suspension, top dose 4 µM)”, the AUC turned out to be 0.918 and the IC50 was above 4 µM.

Turning to “VCaP (prostate, adherent, top dose 4 µM)”, the AUC came out at 0.906 and the IC50 was above 4 µM.

In the case of “VM-CUB-1 (bladder, adherent, top dose 2 µM)”, the AUC is 0.852 and the IC50 stood at 1.46 µM.

On to “VMRC-LCD (lung adenocarcinoma, adherent, top dose 4 µM)”, for which the AUC worked out at 0.988 and the IC50 was above 4 µM.

In the case of “VMRC-RCZ (kidney, adherent, top dose 4 µM)”, the AUC came to 0.85 and the half-maximal inhibitory concentration (IC50) turned out to be 3.86 µM.

For “WIL2-NS (lymphoid neoplasm, suspension, top dose 4 µM)”, the AUC was found to be 0.992 and the 50% inhibitory concentration (IC50) was above 4 µM.

In the case of “WM35 (melanoma, adherent, top dose 4 µM)”, the AUC amounted to 0.897 and the IC50 was above 4 µM.

Turning to “WM793B (melanoma, adherent, top dose 4 µM)”, the AUC came to 0.98 and the IC50 is above 4 µM.

For the cell line “WM1552C (melanoma, adherent, top dose 4 µM)”, the AUC came out at 0.958 and the IC50 was above 4 µM.

As for “WM-115 (melanoma, adherent, top dose 4 µM)”, the AUC turned out to be 0.905 and the IC50 is above 4 µM.

Turning to “WSU-DLCL2 (B-cell lymphoma, suspension, top dose 4 µM)”, the AUC is 0.565 and the half-inhibitory concentration (IC50) amounted to 0.365 µM.

Turning to “WSU-NHL (lymphoid neoplasm, suspension, top dose 4 µM)”, the AUC was found to be 0.47 and the IC50 was found to be 0.209 µM.

For the cell line “YAPC (pancreas, adherent, top dose 4 µM)”, the AUC came out at 0.954 and the IC50 was above 4 µM.

Regarding YH-13 (glioma, adherent, top dose 4 µM), the AUC worked out at 0.757 and the IC50 amounted to 1.44 µM.

On to YKG-1 (glioma, adherent, top dose 4 µM), for which the AUC turned out to be 0.924 and the concentration for half-maximal inhibition (IC50) is above 4 µM.

For the cell line “YT (lymphoid neoplasm, suspension, top dose 4 µM)”, the AUC was 0.531 and the IC50 amounted to 0.3 µM.

Turning to “ZR-75-30 (breast, adherent, top dose 4 µM)”, the AUC worked out at 0.809 and the IC50 came to 3.6 µM.

Regarding huH-1 (liver, adherent, top dose 4 µM), the AUC worked out at 0.768 and the 50% inhibitory concentration (IC50) stood at 1.85 µM.

In the case of no-11 (glioma, adherent, top dose 4 µM), the AUC stood at 0.915 and the IC50 is above 4 µM.
